In PubChem BioAssay AID1476 (National Center for Advancing Translational Sciences (NCATS), 2009):
Several values for one entry are separate records, joined by “and”; a condition that tells them apart may be missing. Equal entries are not always repeated. Screen size: about 200,000 compounds; about 4,500 (2.2%) were called active. Inconclusive results, whose numbers are uncertain, are shown with a selection of clear calls. Calls come from the whole dose curve; as a rule, active = well fitted inhibition curve with a large enough effect; inconclusive = small, poorly fitted or top-dose-only effect, or effect the other way; inactive = flat fitted curve, though single readings scatter. Where the call is inconclusive, the potency comes from a doubtful curve fit.

Molecular target: Cruzipain (Trypanosoma cruzi) (UniProt P25779)
Sequence of UniProt P25779 (P25779 whole entry, looked up): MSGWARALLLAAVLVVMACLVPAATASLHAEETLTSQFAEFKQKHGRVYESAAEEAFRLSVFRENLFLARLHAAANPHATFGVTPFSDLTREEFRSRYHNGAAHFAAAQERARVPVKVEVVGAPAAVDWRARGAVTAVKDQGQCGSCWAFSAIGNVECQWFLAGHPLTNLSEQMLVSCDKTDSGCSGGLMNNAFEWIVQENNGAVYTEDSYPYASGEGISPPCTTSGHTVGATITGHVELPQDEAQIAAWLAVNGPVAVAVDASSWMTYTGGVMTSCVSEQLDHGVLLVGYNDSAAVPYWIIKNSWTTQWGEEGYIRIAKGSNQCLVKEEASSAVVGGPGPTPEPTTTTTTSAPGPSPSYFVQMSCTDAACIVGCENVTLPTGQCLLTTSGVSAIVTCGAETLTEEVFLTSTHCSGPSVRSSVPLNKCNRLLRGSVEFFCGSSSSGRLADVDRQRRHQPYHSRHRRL
Assay: qHTS Assay for Promiscuous and Specific Inhibitors of Cruzain (without detergent); note: nearly all actives have a fitted effect of over 40% in size;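 for max response, negative = inhibition: plate controls were enzyme without inhibitor for no effect and buffer without enzyme for full effect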
Conditions: purified cruzain, Z-FR-AMC fluorescence, no detergent
How it was run: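 Purified cruzain at 1.5 nM, pre-incubated 15 min with compound at room temperature in 100 mM sodium acetate pH 5.5, 5 mM DTT, 0.00005% Triton X-100. Reaction started with 2 uM Z-FR-AMC; AMC fluorescence increase over 60 s gives rate.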
Potency is the fitted concentration of half-maximal effect; tags give direction and shape of the fitted curve.

SMILES	Potency	max response, negative = inhibition
Cc1ccc(OCC(=O)NNC(=O)c2cc3ccccc3o2)cc1C	inconclusive: 39.8 µM [inhibitor, single point]	
CCSc1nnc([C@@H](N)Cc2c[nH]c3ccccc23)o1		inactive: 6.74%
COc1ccc(-c2csc(-c3cc4ccccc4oc3=N)n2)cc1	inconclusive: 31.6 µM [inhibitor, single point]	
COc1ccc(N2CC(NC(=O)/C=C\c3ccc4c(c3)OCO4)CC2=O)cc1OC (stereo not given)	inconclusive: 39.8 µM [inhibitor, single point]	
Cc1ccc(C(=O)Nc2sc(C)c(-c3ccccc3)c2C(N)=O)cc1[N+](=O)[O-]	inconclusive: 39.8 µM [inhibitor, single point]	
COc1ccc2c(Cl)c(C(=O)N/N=C/c3c(C)[nH]c4ccccc34)sc2c1	inconclusive: 39.8 µM [inhibitor, single point]	
CC(=O)c1ccc(N2C(=O)[C@@H]3C(CCC(N)=O)NC4(C(=O)Nc5c4ccc(Cl)c5C)[C@@H]3C2=O)cc1 (stereo not given in full)	inconclusive: 31.6 µM [activator, single point]	
CC(=O)N1c2ccc(S(=O)(=O)N3CCCCCC3)cc2CC1C(=O)NCc1cccc(C)c1 (stereo not given)		inactive: -4.33%
CCOc1ccc(-c2cc3nc(C4CCN(C(=O)OC(C)(C)C)CC4)c(C(=O)Nc4cccc(CC)c4)cn3n2)cc1	inconclusive: 3.98 µM [inhibitor, full curve, poor fit]	
Cn1cc(CCC(=O)NCc2ccc3c(c2)OCO3)c2ccccc21	inconclusive: 0.1 µM [inhibitor, partial curve, poor fit]	
Cc1cccc(NC(=O)CSc2nc3ccc(NC(=O)c4ccccc4)cc3s2)c1		inactive: -27.2%
COc1ccc(COc2cc(-c3cccc(OC)c3)nc3ccc(NC(=O)c4ccc(N(C)C)cc4)cc23)cc1	active: 7.94 µM and active: 6.31 µM	
COc1ccc(-c2cc(C(=O)N3CCOCC3)c3cc(C)ccc3n2)cc1	inconclusive: 39.8 µM [activator, single point]	
Cc1ccccc1Cn1c(SCc2ccc(C(=O)NC3CCCCC3)cc2)nc2ccncc21		inactive: -0.994%
Cc1ccc2ncc(C(=O)c3ccc(C)c(C)c3)c(S(=O)(=O)c3ccc(F)cc3)c2c1	inconclusive: 31.6 µM [inhibitor, single point]	
CCOc1ccc(CC(=O)NCCc2sc3nc(-c4ccc(F)cc4)nn3c2C)cc1	inconclusive: 39.8 µM [activator, single point]	
Cc1ccccc1Cn1ccc(NC(=O)c2cc3nc(-c4ccco4)cc(C(F)(F)F)n3n2)n1	inconclusive: 6.31 µM [activator, full curve, poor fit]	
CCN(CC)S(=O)(=O)c1ccc2c(c1)N(CC(=O)NCc1ccccc1)C(=O)C1CCCCN21 (stereo not given)		inactive: 0.727%
Cc1sc(NC(=O)/C=C/c2ccc(C(C)C)cc2)c(C#N)c1C	active: 25.1 µM	
Cc1ccc(N(C(=O)c2sc(C)nc2C)C(C(=O)NCc2ccco2)c2ccccc2)cc1 (stereo not given)	inconclusive: 31.6 µM [activator, single point]	
CC(=O)NC(Cc1ccccc1)C(=O)NC1CCN(C(=O)c2cnccn2)CC1 (stereo not given)		inactive: -10.4%
COc1ccc2oc(=O)c(-c3nnc(-c4ccc(C)cc4)o3)cc2c1		inactive: -6.82%

SMILES	Potency	max response, negative = inhibition
N#Cc1c(N)sc(=S)c2c1CCN(Cc1ccccc1)C2	active: 12.6 µM	
Cc1cc(Cl)ccc1NS(=O)(=O)c1c(C(=O)N2CCC(C)CC2)c(C)n(C)c1C	inconclusive: 20 µM [activator, partial curve]	
O=C(/C=C/Nc1ccc(S(=O)(=O)Nc2ncccn2)cc1)c1ccc(Cl)c(Cl)c1	active: 31.6 µM	
COc1ccc2[nH]c3c(NCCN(C(C)C)C(C)C)ncnc3c2c1	active: 12.6 µM	
COc1ccc(-c2cc(C(N)=O)nc(N3CCCCCC3)n2)cc1	active: 31.6 µM	
CC(=O)/C(=N\Nc1ccc(Cl)cc1)Sc1nnc(-c2ccccc2)n1-c1ccccc1	inconclusive: 31.6 µM [inhibitor, single point]	
Cc1c(NC(=O)OCCNC(=O)COc2ccc(Cl)cc2Cl)sc(=S)n1C		inactive: 14.8%
CCc1ccc2[nH]c(=O)c(C(c3nnnn3CCOC)N3CCN(c4ccc(F)cc4)CC3)cc2c1 (stereo not given)	inconclusive: 25.1 µM [activator, partial curve]	
Fc1ccc(C(c2ccc(F)cc2)N2CCN(C/C=C\c3ccccc3)CC2)cc1		inactive: -2.81% and inactive: 1.12%
O=C(Cc1c(F)cccc1Cl)Nc1ccon1		inactive: -2.45%
CCOC(=O)Nc1nnc(-c2ccc(OC)c(OC)c2)s1	inconclusive: 15.8 µM [activator, partial curve, poor fit]	
CCC1CCc2c(sc(NC(=O)CSc3nc(-c4ccco4)cc(C(F)(F)F)n3)c2C#N)C1 (stereo not given)	active: 1.26 µM	
Cc1ccc(-c2nc(SCC(=O)Nc3cc(S(=O)(=O)N4CCCCC4)ccc3Cl)n[nH]2)cc1	inconclusive: 25.1 µM [inhibitor, single point]	
COc1ccc2nc(Nc3nc(CSc4nnnn4-c4ccccc4)cc(=O)[nH]3)nc(C)c2c1	inconclusive: 20 µM [activator, single point]	
Cc1ccc(/C=N/N=C2/NC(=O)C(CC(=O)Nc3ccc(Cl)cc3)S2)o1 (stereo not given)	inconclusive: 39.8 µM [inhibitor, single point]	
COc1ccc(/C=N/Nc2nc(-c3ccc(Cl)cc3)cc(C(F)(F)F)n2)c(OC)c1	inconclusive: 31.6 µM [inhibitor, single point]	
COc1cc(-c2nnc(SCC(=O)c3cc(C)n(CC4CCCO4)c3C)o2)cc(OC)c1OC (stereo not given)	inconclusive: 25.1 µM [activator, partial curve]	
Cc1c(C(=O)Nc2ccc(OC(F)(F)F)cc2)sc2nc3n(c(=O)c12)CCC3	inconclusive: 39.8 µM [activator, single point]	
CC1CCCCC1NC(=O)c1cn(C)c2ccc(S(=O)(=O)N3CCCC3)cc2c1=O (stereo not given)	inconclusive: 39.8 µM [activator, single point]	
CCCCCCCCCCCCSCCOCCO	inconclusive: 39.8 µM [activator, single point]	
CCOc1ccc(NC(=O)c2cc(S(=O)(=O)N3CCc4ccccc43)ccc2F)cc1		inactive: -29.6%
O=C(O)c1ccncc1.O=C(O)c1ccncc1.[NH2-].[NH2-].[Pt]		inactive: 4.11%

SMILES	Potency	max response, negative = inhibition
CSc1nc2ccccc2cc1/C=C(\C#N)c1ccc(Cl)c(Cl)c1	active: 25.1 µM	
CC(C)(C)c1nc2ccccc2c2nnc(SCC(=O)Nc3nc4ccccc4s3)n12	inconclusive: 6.31 µM [activator, single point]	
O=C(CCn1c(=O)c2cccn2c2cccnc21)Nc1ccccc1C(F)(F)F		inactive: 21.8%
Cc1c(Cl)cccc1NS(=O)(=O)c1ccc(-c2cnc(C3CC3)o2)cc1		inactive: 12.2%
CS(=O)(=O)c1sc2nc(-c3cccs3)cc(-c3ccccc3)c2c1N	active: 20 µM	
Cc1cc(C)nc(-n2nc(C)c3c2N(Cc2ccccc2)C(=O)CC3c2ccc(Cl)cc2)n1 (stereo not given)	inconclusive: 20 µM [activator, partial curve]	
COc1cccc(Cn2c(=O)c(-c3ccccc3)nc3cnc(N(C)C)nc32)c1		inactive: 11.4%
Cn1cccc1CC(=O)N/N=C\c1cccs1		inactive: -1.47%
O=C(CSc1oc(-c2ccccc2)nc1S(=O)(=O)c1ccc(Cl)cc1)c1ccccc1	inconclusive: 31.6 µM [inhibitor, single point]	
Cc1cccc(C)c1NCc1nnc(SCC(=O)Nc2nc(-c3ccccc3)cs2)n1-c1ccccc1	inconclusive: 39.8 µM [inhibitor, single point]	
Cc1ccc2c(=O)cc(C(=O)Nc3ccc(S(=O)(=O)Nc4onc(C)c4C)cc3)oc2c1C	inconclusive: 39.8 µM [activator, single point]	
O=c1cc(CN2CCN(S(=O)(=O)/C=C/c3ccccc3)CC2)c2ccc(O)cc2o1		inactive: -11.9%
COc1ccc(CN2CCN(c3ccc(F)cc3)CC2)c(OC)c1OC		inactive: 4.35%
COc1ccc(-c2nc(CSCC(=O)N3CCN(c4ccc(F)cc4)CC3)c(C)o2)cc1	inconclusive: 31.6 µM [activator, single point]	
Cc1ccc2c3c(c(SCC(=O)Nc4nccs4)nc2c1)CCCC3		inactive: 0.676%
COc1ccc(C(=O)NC(CO)c2nnc(SCc3ccc(Cl)c(Cl)c3)n2C)cc1 (stereo not given)	inconclusive: 39.8 µM [activator, single point]	
Cc1ccc(S(=O)(=O)N2CCOCC2)cc1C(=O)NCCN1C(=O)S/C(=C\c2ccccc2Cl)C1=O	inconclusive: 31.6 µM [activator, single point]	
COc1ccc(NC(=O)CCCn2nc(C)c3sc4ccccc4c3c2=O)cc1		inactive: -12.1%
Cc1cccc(-c2cc(C(=O)N3CCCc4ccccc43)c3ccccc3n2)c1	inconclusive: 39.8 µM [inhibitor, single point]	
Cc1ccccc1OCCCN1C(=O)C(=O)c2cccc(C)c21	inconclusive: 31.6 µM [activator, single point]	
Fc1ccc(-c2nc(Nc3cccc(C(F)(F)F)c3)nc3c2COc2ccccc2-3)cc1	inconclusive: 25.1 µM [inhibitor, single point]	
